Results reported in the supplement of paper PMC3334620.
Whole data set: some 33,000 sequences, median “E-score (-0.5 to 0.5)” near -0.016, cut for the highest 2% near 0.32. This is one part of the list.

Molecular target: T1, Stp1 (UniProt B3LFK1)
T1 sequence: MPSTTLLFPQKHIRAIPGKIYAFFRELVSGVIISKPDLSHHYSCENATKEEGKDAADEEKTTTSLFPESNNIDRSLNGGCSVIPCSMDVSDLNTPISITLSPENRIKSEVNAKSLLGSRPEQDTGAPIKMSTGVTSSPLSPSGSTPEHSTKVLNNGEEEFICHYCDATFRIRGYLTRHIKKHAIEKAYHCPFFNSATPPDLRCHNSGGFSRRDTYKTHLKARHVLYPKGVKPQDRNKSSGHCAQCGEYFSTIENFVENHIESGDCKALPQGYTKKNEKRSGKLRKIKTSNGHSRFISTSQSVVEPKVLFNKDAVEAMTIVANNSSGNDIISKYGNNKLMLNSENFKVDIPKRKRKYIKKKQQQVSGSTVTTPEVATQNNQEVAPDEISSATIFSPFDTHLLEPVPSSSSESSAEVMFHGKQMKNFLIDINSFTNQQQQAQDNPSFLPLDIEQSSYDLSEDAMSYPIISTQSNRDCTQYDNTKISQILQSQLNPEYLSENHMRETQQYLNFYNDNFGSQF
Test: PBM E-score (8-mer binding enrichment) (E-score (-0.5 to 0.5)); higher = stronger / more preferred TF binding; most listed sequences are background and not binding sites
Details: protein concentration: 200 nM; construct: GST-full length
Summary of the method: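 GST-tagged yeast TFs (full-length or DNA-binding domain) were made by PURExpress in vitro transcription/translation and applied at about 100-200 nM to universal all-10-mer Agilent arrays. The arrays were made double-stranded by primer extension, on fresh or once-stripped slides. Bound protein was detected with fluorescent anti-GST, and scans were normalised with masliner. Each ungapped eight-base word, pooled with its reverse complement, received an E-score (modified Wilcoxon-Mann-Whitney statistic) from the Universal PBM Analysis Suite.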

Sequence | PBM E-score
ACACAACT | 0.0403
AGCATTGA | -0.0564
TTCGTAAA | 0.0535
AGGGAGCA | -0.403
AGCTCATA | -0.0536
GCCTAGCC | 0.0204
CGTGACCA | -0.116
CTGTAGGA | -0.0926
AGAGCCAC | 0.0143
AAGCACTT | -0.171
AAGAGGCG | 0.298
ATAGCACG | 0.129
CCGCACGA | 0.27
CTAATGAG | 0.0123
ATGTTACC | 0.0678
GTGATCAA | 0.077
AGTGCGCG | 0.0268
AAGCGGTG | -0.156
CAAATAAA | 0.256
GTGCGGGA | 0.041
ACGCGCCT | 0.34
GTGGACTA | -0.0662

Sequence | PBM E-score
GGCAGGCA | -0.0212
CCTCAAGC | -0.257
AAAACGTT | 0.0424
ACCGGATA | -0.161
CAATAGTC | -0.0133
CCCATGAC | -0.137
AAGGTATT | 0.0209
AGCCCCAA | -0.185
CCTATGTC | -0.185
CCACACTA | 0.127
AATCCAGC | -0.213
CAATTCGG | 0.145
CTGGAGAA | -0.208
GATACCCC | -0.196
ACTCATCT | -0.136
CCCCCTAG | -0.354
GAAATCGC | 0.0286
ACGCGCAG | -0.103
AACTGTTC | -0.0898
AGCGATAC | -0.089
CAGATAGG | -0.0177
CAGAAAAG | -0.0641

Sequence | PBM E-score
AAATCTCC | -0.117
AAGTCGAT | -0.0828
TCATGCAA | -0.032
CTGAATAC | -0.00118
GGCCAAAC | -0.0831
AGTCTTGG | -0.123
CATTGGCA | -0.0344
TCCCCGCA | 0.0182
CGGCTAGC | 0.089
AACTCACT | -0.127
AAGGGGAT | -0.158
ATATTCGC | 0.118
GTCCGAGA | 0.123
CACATCGA | -0.0718
AAGAACAT | 0.147
CAAAGTTG | 0.124
AACCGCGG | 0.18
CTGAGTTA | -0.149
TATTATGA | 0.117
GCCTGCCC | -0.0443
ACTAATCC | -0.0512
TGGTACAA | -0.109

Sequence | PBM E-score
ATTGGATC | 0.131
CGGGAGGC | -0.0739
CGAATTTA | 0.152
GCAATGTA | -0.059
ACCCCTGC | -0.375
TAGGCATA | -0.00082
GCATTGGC | -0.0163
CACTTTGA | -0.0765
GAGGGCCC | -0.375
AAGCGCCT | 0.272
AGCCGGCA | 0.0341
CATGTTAG | -0.00716
ATGATTTG | -0.066
ACCAAAGC | 0.0787
AGGGTGGG | -0.168
ACGCGTGC | 0.191
AGAGCGAT | -0.293
ATCTCAGG | -0.0451
AGCCAACA | -0.0766
ATTTGTAG | 0.0817
ATCACGTA | -0.0216
GCCACACC | 0.175

Sequence | PBM E-score
CCTACAAC | 0.0976
GCACGTCA | -0.017
AGCGCGAG | 0.0353
AAGCCACG | 0.0378
CCATACAC | 0.112
AAATTGGC | 0.00303
AACGGCTG | 0.0994
ACAAGATG | -0.052
AAGTTAGA | 0.0445
ATTCGCAG | 0.113
ACAAGGAG | 0.139
CGAGATAG | -0.206
CTTAAAAG | -0.174
TAATCCGA | -0.15
ACCAGAAA | -0.0473
AGGCTCAT | 0.191
CCCTCCAA | -0.0894
AAGTGCAT | 0.117
ACTATCTG | -0.183
ACATCGAG | -0.111
TTGTAAAA | 0.131
CTTTATGC | 0.17
